# Measurements taken from PubChem BioAssay AID651820 (National Center for Advancing Translational Sciences (NCATS), 2012).
# The campaign covered roughly 340,000 compounds. About 12,000 (3.5%) were called active. Inconclusive means that the source gave no clear call. Such entries were picked first, then a sample of the others. Calls come from the whole dose curve; as a rule, active = well fitted inhibition curve with a large enough effect; inconclusive = small, poorly fitted or top-dose-only effect, or another doubt; inactive = no such curve, though single readings can be large or run the other way. Potencies of inconclusive entries are left out as doubtful fits.
# Assay: qHTS Assay for Inhibitors of Hepatitis C Virus (HCV)
# Settings: Huh7.5.1 HCVcc-Cre (HCVcc is cell-culture hepatitis C virus) infection, luciferase reporter, 44 h; activity change, negative = inhibition: at 41.8 µM (top of the series) unless noted
# Method in brief: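 Compounds are dispensed onto cells plated 4 h earlier at 1,000 per well, with HCVcc-Cre virus (about 0.5 moi) added next. Following 44 h of culture, luminescent signal is measured for 15 sec after 15 min with substrate at room temperature.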
# % is set by controls: 0 for no effect and ±100 for the full control effect; potency is the fitted concentration of half-maximal effect; tags give direction and shape of the fitted curve.
Structure (SMILES),"activity change, negative = inhibition",Potency
COc1cccc(OCC(=O)Nc2cc(NC(=O)COc3cccc(OC)c3)cc(C(=O)O)c2)c1,inactive: 13.1%,
Cc1cccc(OCCn2c(-c3ccco3)nc3ccccc32)c1,,"inconclusive [inhibitor, single point]"
COC(=O)c1cc(NS(=O)(=O)c2ccc(NC(C)=O)cc2)ccc1Cl,inactive: 14.3%,
CCN(CC)S(=O)(=O)c1ccc(N2CCOCC2)c(NC(=O)c2cccc3ccccc23)c1,inactive: 2.66%,
CCS(=O)(=O)N1CCC(C(=O)NCc2ccccc2OC)CC1,inactive: 13.3%,
O=[N+]([O-])c1ccc(CN2CCOCCOCCN(Cc3ccc([N+](=O)[O-])cc3)CCOCC2)cc1,,"inconclusive [inhibitor, single point]"
CC(C)CC1Nc2ncnc(N3CCN(c4ccccc4)CC3)c2N(Cc2ccccc2)C1=O (configuration not stated),,"inconclusive [inhibitor, single point]"
COc1ccccc1OCCNC(=O)CNC(=O)c1ccc(C(C)(C)C)cc1,,"inconclusive [inhibitor, partial curve]"
O=C(CSc1nc(=O)n2ccccc2n1)NCc1ccccc1,inactive: 4.6%,
COc1ccc(NC(=O)CC(C)c2ccccc2)c([N+](=O)[O-])c1 (configuration not stated),inactive: -5.01%,
COc1ccc2c(c1)NC(c1cc(Cl)cc(Cl)c1O)c1cccn1-2 (configuration not stated),,"inconclusive [inhibitor, partial curve]"
Cc1ccc(-n2nc3ccc(NC(=O)C(C)C)cc3n2)cc1,,"inconclusive [inhibitor, single point]"
Cc1ccc(C(=O)OCC(=O)Nc2ccccc2)cc1S(=O)(=O)N1CCCCC1,,"inconclusive [inhibitor, single point]"
COc1ccc(C2NN=C(c3ccc(C)cc3)S2)cc1OC (configuration not stated),,"inconclusive [inhibitor, single point]"
CSc1ccc(/C=C/c2ccc3cccc(O)c3n2)cc1,,"inconclusive [inhibitor, single point]"
COc1ccc2nc(C)cc(N/N=C/c3ccccc3)c2c1,,active: 10 µM
O=C(N/N=C1\CCCc2c1[nH]c1ccc(Cl)cc21)c1ccncc1,,active: 3.16 µM
Cc1ccc(C2=CN(Cc3ccccc3)CCC2=O)cc1,,"inconclusive [inhibitor, single point]"
NCC(O)(c1ccc(Cl)cc1)c1ccc(Cl)cc1,,"inconclusive [inhibitor, single point]"
Cc1csc2ncc(C(=O)Nc3ccon3)c(=O)n12,inactive: 11.8%,
O=C(NC(NC(=S)N1CCOCC1)C(Cl)(Cl)Cl)c1ccc(Cl)cc1 (configuration not stated),,"inconclusive [inhibitor, full curve]"
O=C(N/N=C/c1ccc[nH]1)c1cccnc1,inactive: 4.31%,
COc1ccccc1-n1nnnc1SCC(=O)NCC1(N2CCOCC2)CCCCC1,,"inconclusive [inhibitor, partial curve]"
O=C(Nc1ccccc1-c1ccccc1)c1cnccn1,,"inconclusive [inhibitor, partial curve]"

Structure (SMILES),"activity change, negative = inhibition",Potency
CCc1ccccc1NC(=O)c1ccoc1C,inactive: 5.61%,
O=C(NCc1csc2ccc(Cl)cc12)Nc1ccccc1,,"inconclusive [inhibitor, single point]"
CCc1ccccc1NC(=O)Cn1cccc1C1=NC(c2ccccc2)CO1 (configuration not stated),,"inconclusive [inhibitor, partial curve, poor fit]"
CC(NS(=O)(=O)c1cccc(Cl)c1)C(=O)Nc1ccc(-c2nc3ccccc3s2)cc1 (configuration not stated),,"inconclusive [inhibitor, full curve]"
Cc1ccc(-c2nc3sc4c(c3c(=O)n2N)CCCC4)cc1,,"inconclusive [inhibitor, partial curve]"
O=C1Nc2cc(C(=O)NCCCN3CCCC3)ccc2S/C1=C\c1ccccc1,,active: 11.2 µM
O=C(Nc1ccc(S(=O)(=O)N2CCCC2)cc1)C1CCCN1C(=O)c1cccs1 (configuration not stated),inactive: 3.54%,
CCOC(=O)c1cc(-c2ccccc2)n[nH]1,inactive: 13.5%,
CCNC(=S)N1N=C2c3ccccc3CCC2C1c1ccc(F)cc1 (configuration not stated),,"inconclusive [inhibitor, partial curve]"
CC1CCN(C(=O)c2ccc(S(=O)(=O)Cc3cc(F)ccc3F)c([N+](=O)[O-])c2)CC1,,"inconclusive [inhibitor, single point]"
COc1ccccc1C(c1nnnn1Cc1ccccc1)N1CCN(C2CCCC2)CC1 (configuration not stated),,"inconclusive [inhibitor, partial curve]"
CC(C)COC(=O)Cn1cnc2ccc(Br)cc2c1=O,inactive: -27.2%,
O=C(C1CCCN(S(=O)(=O)c2ccc(Br)s2)C1)N1CCCCCC1 (configuration not stated),,"inconclusive [inhibitor, single point]"
Cc1cc(N2CCCCC2)nc(SCc2ccc(C#N)cc2)n1,,"inconclusive [inhibitor, single point]"
COc1cccc(Nc2nc(N)c([N+](=O)[O-])c(NCc3ccco3)n2)c1,,active: 10 µM
CC(C)(C)c1ccc(OCC(O)CN2CCN(C(=O)c3ccccc3)CC2)cc1 (configuration not stated),inactive: -0.8%,
COc1ccccc1CNC(=O)CCCn1nc(C)c2c(C)n(-c3ccc(C)cc3)nc2c1=O,,"inconclusive [inhibitor, single point]"
Cc1nn(C)c(Oc2ccccc2)c1CCNS(=O)(=O)c1ccc(F)cc1,,"inconclusive [inhibitor, single point]"
CCOc1cc(C(=O)N=c2sccn2C)ccc1OC(F)F,,"inconclusive [inhibitor, single point]"
COc1cccc(/C=N/NC(=O)c2ccc3nc[nH]c3c2)c1O,inactive: 12.1%,
Cc1ccc2nc(SC(C)C(=O)NCc3ccc4c(c3)OCO4)[nH]c2c1 (configuration not stated),inconclusive: -34.5% [inhibitor],
CN(CCc1ccccc1)Cc1nc(-c2cnccn2)no1,,"inconclusive [inhibitor, partial curve]"
COc1ccc(C(=O)N/N=C/c2ccc(OC)c(OS(=O)(=O)c3ccccc3)c2)cc1,,active: 10 µM
